From paper PMC4336329 (PLoS ONE, 2015) come the findings set out here.

Screen size: about 310,000 compounds; about 2,200 (0.71%) showed an effect of 50% or more. The effect is printed as a negative number. The list shows a part of the results.

In this assay the target is human ether-à-go-go-related gene (hERG) potassium channel (human, UniProt Q12809). Description: primary screen, population patch clamp on CHO cells stably expressing hERG.
Sequence of human ether-à-go-go-related gene (hERG) potassium channel (Q12809 whole entry, looked up): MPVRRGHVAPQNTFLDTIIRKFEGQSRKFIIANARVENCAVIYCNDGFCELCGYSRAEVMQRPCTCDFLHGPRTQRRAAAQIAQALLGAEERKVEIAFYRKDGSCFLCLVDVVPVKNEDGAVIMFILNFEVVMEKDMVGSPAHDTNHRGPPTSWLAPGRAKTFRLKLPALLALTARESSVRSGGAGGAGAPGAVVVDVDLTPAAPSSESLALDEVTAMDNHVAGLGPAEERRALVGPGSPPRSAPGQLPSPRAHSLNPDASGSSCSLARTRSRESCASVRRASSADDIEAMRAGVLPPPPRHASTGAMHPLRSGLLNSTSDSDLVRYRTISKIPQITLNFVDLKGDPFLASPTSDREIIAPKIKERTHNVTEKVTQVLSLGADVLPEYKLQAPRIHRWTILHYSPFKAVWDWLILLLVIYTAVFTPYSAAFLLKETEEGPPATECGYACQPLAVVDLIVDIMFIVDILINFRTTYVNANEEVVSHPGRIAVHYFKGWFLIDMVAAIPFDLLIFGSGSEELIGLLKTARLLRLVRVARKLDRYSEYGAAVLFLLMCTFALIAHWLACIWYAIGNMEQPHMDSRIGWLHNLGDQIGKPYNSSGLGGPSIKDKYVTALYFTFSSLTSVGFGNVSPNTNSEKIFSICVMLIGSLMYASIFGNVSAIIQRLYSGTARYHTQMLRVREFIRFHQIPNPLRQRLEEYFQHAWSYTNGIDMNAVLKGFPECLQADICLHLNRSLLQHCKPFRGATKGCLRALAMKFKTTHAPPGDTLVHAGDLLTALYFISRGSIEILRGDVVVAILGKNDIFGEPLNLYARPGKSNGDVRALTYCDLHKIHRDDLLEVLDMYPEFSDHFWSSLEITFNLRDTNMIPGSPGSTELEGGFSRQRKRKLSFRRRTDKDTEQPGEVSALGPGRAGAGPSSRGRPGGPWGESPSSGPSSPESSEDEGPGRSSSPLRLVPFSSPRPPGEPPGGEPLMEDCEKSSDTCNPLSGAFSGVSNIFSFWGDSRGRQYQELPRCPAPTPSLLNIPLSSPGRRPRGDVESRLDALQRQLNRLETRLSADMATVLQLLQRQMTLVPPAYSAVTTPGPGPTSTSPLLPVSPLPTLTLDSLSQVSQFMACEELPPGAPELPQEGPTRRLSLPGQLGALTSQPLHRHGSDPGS
As to `CCCCCC(=O)Nc1cccc(C2=NOC3(C2)C[C@H](C(N)=O)N(C(=O)[C@H]2CCC(=O)N2)C3)c1` (some centres unmarked), the “hERG current change (%, negative = inhibition) at 1uM” value worked out at 20.6%.

As for `O=C(CS(=O)(=O)c1ccccc1)NCc1ccco1`, the “hERG current change (%, negative = inhibition) at 1uM” value is on record as 7.36%.

Take `O=c1c(C/C=C/c2ccccc2)c(O)ccn1Cc1ccc(Cl)cc1Cl`: the “hERG current change (%, negative = inhibition) at 1uM” value worked out at 17.1%.

As for `COc1ccc(NC(=O)Nc2cc(C(=O)O)ccc2N2CC3CC(C2)c2cccc(=O)n2C3)c(OC)c1` (centres unmarked), the “hERG current change (%, negative = inhibition) at 1uM” value was 5.08%.

Regarding `Cc1ccc(OCCOCCN2CCCC2)c(Br)c1.O=C(O)C(=O)O`, the “hERG current change (%, negative = inhibition) at 1uM” value is on record as -0.528%.

With `CC(=O)Nc1ccc(NC(=O)CSc2ccc3nnc(-c4ccccn4)n3n2)cc1`, the “hERG current change (%, negative = inhibition) at 1uM” value amounted to 15.7%.

As for `Cc1ccnc(NC(=O)c2ccc(Cl)c(S(=O)(=O)N3CCCCC3)c2)c1`, the “hERG current change (%, negative = inhibition) at 1uM” value is on record as -2.43%.

Regarding `Cc1ccc(N2C(=O)N(CC(=O)Nc3ccc(C)c(C)c3[N+](=O)[O-])C(=O)C2C)cc1` (centres unmarked), the “hERG current change (%, negative = inhibition) at 1uM” value worked out at 11%.

With `Cn1cccc1Cc1nnc(SCC(=O)N2CCCCCC2)n1CCc1ccccc1`, the “hERG current change (%, negative = inhibition) at 1uM” value came to 4.32%.

With `CCc1ccccc1N(CC(=O)Nc1cccc(N(C)S(C)(=O)=O)c1)S(C)(=O)=O`, the “hERG current change (%, negative = inhibition) at 1uM” value worked out at 11.4%.

Turning to `CCOc1ccccc1C1CC(=O)NC2=C1C(=O)CCC2` (centres unmarked), the “hERG current change (%, negative = inhibition) at 1uM” value is recorded as 11.1%.

With `CCC1(C)CN(S(=O)(=O)OCC(Cl)(Cl)Cl)C(=O)N1` (centres unmarked), the “hERG current change (%, negative = inhibition) at 1uM” value is on record as 4.55%.

Consider `CN1CCC/C1=C1/C(=O)N(c2ccccc2)N=C1NC(=O)Nc1cccc(Cl)c1`, for which the “hERG current change (%, negative = inhibition) at 1uM” value stood at 16.6%.

With `C=CCCC(=O)N1CCC(Oc2cccc(C(=O)NCc3ccccn3)c2)CC1`, the “hERG current change (%, negative = inhibition) at 1uM” value is 8.78%.

For `C/C=C(\C)C(=O)Nc1cccc(C2=NOC3(C2)C[C@H](C(N)=O)N(C(=O)CC#N)C3)c1` (some centres unmarked), the “hERG current change (%, negative = inhibition) at 1uM” value amounted to 15.2%.

Take `C[C@]12CC3CC(N)(C1)C[C@@](C)(C3)C2.Cl`: the “hERG current change (%, negative = inhibition) at 1uM” value is recorded as 8.56%.

Turning to `Cc1nnn(C23CC4CC(CC(C(=O)NN)(C4)C2)C3)n1`, the “hERG current change (%, negative = inhibition) at 1uM” value is given as 10.2%.

In the case of `O=C(COC(=O)c1ccc(Br)cc1)NCCC1=CCCCC1`, the “hERG current change (%, negative = inhibition) at 1uM” value stood at 5.75%.

As for `Nc1nonc1-n1nnc(C(=O)N/N=C/c2cc(Br)ccc2O)c1CSC1=NCCS1`, the “hERG current change (%, negative = inhibition) at 1uM” value came to 14.7%.

Take `O=C(Nc1ccc(F)c(Cl)c1)C1CC(=O)n2c(nc3ccccc32)N1` (centres unmarked): the “hERG current change (%, negative = inhibition) at 1uM” value turned out to be 9.65%.

For the molecule `CCOc1cccc(N2C(=O)CC(NCc3ccc(S(N)(=O)=O)cc3)C2=O)c1` (centres unmarked), the “hERG current change (%, negative = inhibition) at 1uM” value turned out to be 12.5%.

In the case of `CCN1/C(=C/C(=O)c2ccco2)Sc2ccccc21`, the “hERG current change (%, negative = inhibition) at 1uM” value is given as 6.78%.

Regarding `CSCC[C@H](NS(=O)(=O)c1ccc(C)cc1)C(=O)N1CCC(C(=O)N[C@@H](Cc2ccccc2)C(=O)O)CC1`, the “hERG current change (%, negative = inhibition) at 1uM” value is given as 10.6%.

For the molecule `CCN(CC(=O)Nc1cccc(OC)c1)C(=O)c1cnc(Cl)c(Cl)c1`, the “hERG current change (%, negative = inhibition) at 1uM” value is given as 18.3%.

Regarding `CC(=O)c1cc2c(cc1NC(=O)c1c(-c3ccccc3)noc1C)OCO2`, the “hERG current change (%, negative = inhibition) at 1uM” value amounted to 11.2%.

Take `Cc1cccc(OCC(=O)Nc2nnc(S(=O)(=O)N3CCC(C)CC3)s2)c1`: the “hERG current change (%, negative = inhibition) at 1uM” value is reported as 5.25%.

Regarding `Cc1cc(-c2nc(C)c(C(=O)NNC(=O)NC(C)C)s2)no1`, the “hERG current change (%, negative = inhibition) at 1uM” value is reported as 6.74%.

Consider `COc1ccc2ccccc2c1C1NC(=O)NC(C)=C1[N+](=O)[O-]` (centres unmarked), for which the “hERG current change (%, negative = inhibition) at 1uM” value is -0.897%.

In the case of `CCOc1ccc(N2C(=O)CC(N(CCc3ccc(OC)cc3)C(=O)/C=C/C(=O)O)C2=O)cc1` (centres unmarked), the “hERG current change (%, negative = inhibition) at 1uM” value came to 21.8%.

In the case of `COc1ccc(NC(=O)CSc2nnc(-c3ccccc3)n2Cc2ccco2)c(OC)c1`, the “hERG current change (%, negative = inhibition) at 1uM” value came to 9.82%.

As to `CC(C)(C)NC(=O)COc1ccccc1C#N`, the “hERG current change (%, negative = inhibition) at 1uM” value was 20.9%.

Turning to `CCOC(=O)c1cc(=O)n(Cc2ccccc2C)c2ccccc12`, the “hERG current change (%, negative = inhibition) at 1uM” value was -3.87%.

For `O=C(O)c1cc2ccc3ccccc3c2[nH]1`, the “hERG current change (%, negative = inhibition) at 1uM” value came to 5.32%.

For `Cc1cc(C)c(C2=Nn3c(C)nnc3SC2C)cc1C` (centres unmarked), the “hERG current change (%, negative = inhibition) at 1uM” value came out at 7.4%.

In the case of `O=C(CN(Cc1ccccc1F)C(=O)c1csnn1)NC1CCCCC1`, the “hERG current change (%, negative = inhibition) at 1uM” value amounted to 16%.

As to `CCOc1ccc(OCCNC(=O)C(NC(=O)c2c(F)cccc2F)C(C)C)cc1` (centres unmarked), the “hERG current change (%, negative = inhibition) at 1uM” value is 1.29%.

Consider `O=C(Cc1ccc(Cl)cc1)NCCS(=O)(=O)N1CCN(c2ccccc2)CC1`, for which the “hERG current change (%, negative = inhibition) at 1uM” value is reported as 12.5%.

On to `CCOC(=O)N1CCN(C(=O)Cn2cc3c(n2)CCCC3)CC1`, for which the “hERG current change (%, negative = inhibition) at 1uM” value is -51.2%.

On to `CCN1C(=O)C(=O)N(CC(=O)Nc2ccccc2Oc2ccccc2)C1=O`, for which the “hERG current change (%, negative = inhibition) at 1uM” value came out at 12.5%.

Take `CCC(=O)NCCCCCCCCCNC(=O)CC`: the “hERG current change (%, negative = inhibition) at 1uM” value is listed as 12.7%.

As for `O=C(CCNC(=O)C1CCN(S(=O)(=O)c2ccccc2)CC1)NCc1cccc(C(F)(F)F)c1`, the “hERG current change (%, negative = inhibition) at 1uM” value is 0.801%.

Regarding `NCCCNC(=O)c1cc2ccccc2[nH]1`, the “hERG current change (%, negative = inhibition) at 1uM” value was determined as 6.97%.

`COc1ccc(OC)c(Cc2nnc(CCC(=O)NC3CCCCCCC3)o2)c1`: the “hERG current change (%, negative = inhibition) at 1uM” value was found to be 1.28%.

For the molecule `CC(C)NC(=O)NC(=O)COC(=O)c1cccc(OC(F)F)c1`, the “hERG current change (%, negative = inhibition) at 1uM” value is 14.4%.
